Among all 48,000 compounds or so, about 550 (1.1%) were called active. Inconclusive results (about 4%) are left out. Cut-off read from the data, not from the text of the source: active = potency below about 15 µM; inconclusive = mostly about 16 µM to 33 µM; inactive = weaker than that. The list shows a part of the results.
Potency is the fitted concentration of half-maximal effect.

UniProt P04062, sequence (P04062 whole entry, looked up): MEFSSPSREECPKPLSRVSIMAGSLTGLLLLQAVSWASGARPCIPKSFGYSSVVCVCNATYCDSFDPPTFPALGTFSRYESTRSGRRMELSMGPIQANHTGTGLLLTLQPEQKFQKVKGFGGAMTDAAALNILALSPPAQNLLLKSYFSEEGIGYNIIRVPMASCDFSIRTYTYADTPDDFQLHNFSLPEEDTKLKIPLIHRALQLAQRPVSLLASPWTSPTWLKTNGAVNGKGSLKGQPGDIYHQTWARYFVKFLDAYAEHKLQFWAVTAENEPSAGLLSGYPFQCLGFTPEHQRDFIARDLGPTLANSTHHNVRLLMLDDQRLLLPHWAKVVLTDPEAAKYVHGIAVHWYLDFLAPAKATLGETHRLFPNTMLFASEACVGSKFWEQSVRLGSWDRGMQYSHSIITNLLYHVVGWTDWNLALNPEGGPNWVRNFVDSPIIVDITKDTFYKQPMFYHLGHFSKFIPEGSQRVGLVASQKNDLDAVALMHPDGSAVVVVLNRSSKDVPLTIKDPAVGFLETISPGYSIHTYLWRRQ

This assay concerns the target Lysosomal acid glucosylceramidase (Homo sapiens) (UniProt P04062). The assay can be described thus: Glucocerebrosidase.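 Note: the screen sought inhibitors.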 As to conditions: purified enzyme, resorufin glucoside fluorescence (screen aimed at inhibitors), 20 min. The essentials:
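Wild-type enzyme at 0.2 nM final in 50mM citric acid/KH2PO4, 10mM sodium taurocholate, 0.01% tween-20, pH 5.9, with resorufin beta-D-glucopyranoside at 30 uM final. Compounds titrated, 20 min at RT, red fluorescence read; AC50 from titration.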
For `O=C(Nc1nccs1)c1ccc(COc2ccc(F)cc2)o1`, the Potency was inactive: > 76.9 µM.
With `c1ccc(-c2csc(Nc3cccnc3)n2)nc1` the figure was inactive: > 76.9 µM; with `CCOC(=O)CNc1c(-c2ccc(F)cc2)nc2cnccn12`, inactive: > 76.9 µM; with `CCOC(=O)c1c(C)c(C(=O)NCc2ccccn2)c(C)n1C`, inactive: > 76.9 µM.
With `OCCOCCOCCn1c2ccccc2c2ccccc21` the figure was inactive: > 76.9 µM.
Consider `CCC(=O)N1CCc2cc(S(=O)(=O)N3CCN(c4ccccn4)CC3)ccc21`, for which the Potency is inactive: > 76.9 µM.
`O=C(Cn1cnc2c(nnn2-c2ccc(F)cc2)c1=O)NCC1CCCO1` (stereo unspecified): the Potency is inactive: > 76.9 µM.
With `CCNc1ccc2c(Cl)cc(=O)oc2c1` the figure was inactive: > 76.9 µM; with `CCOC(=O)C1(C(F)(F)F)N=C(c2cccnc2)OC(N2CCOCC2)=N1` (stereo unspecified), inactive: > 76.9 µM; with `COCCNC(=O)C(c1ccc(F)cc1)N(Cc1ccco1)C(=O)CCC(=O)Nc1nccs1` (stereo unspecified), inactive: > 76.9 µM.
With `COc1ccccc1NC(=O)C(CCS(C)(=O)=O)N1C(=O)c2ccccc2C1=O` (stereo unspecified), the Potency was inactive: > 76.9 µM.
With `CC(C(=O)Oc1ccc2c(c1)OCO2)N1C(=O)c2ccccc2C1=O` (stereo unspecified) the figure was inactive: > 76.9 µM.
With `O=c1[nH]c(=O)n(CCO)c2nnn(Cc3ccccc3)c12` the figure was inactive: > 76.9 µM.
On to `CCCNC(=O)NC(=O)CN1C(=O)NC(C)(c2ccc(C)cc2)C1=O` (stereo unspecified), for which the Potency is inactive: > 76.9 µM.
The value for `COC(=O)CN1CCN(C(=O)c2ccc(F)cc2)c2ccccc2C1` was inactive: > 76.9 µM; that for `CC(C)CCn1c(SCCc2ccccc2)nc2c1c(=O)[nH]c(=O)n2C` was inactive: > 76.9 µM; that for `O=C(CCC(=O)N(c1cccc(F)c1)C(C(=O)NC1CCCC1)c1ccncc1)Nc1cccnc1` (stereo unspecified) was inactive: > 76.9 µM.
With `Cc1ccnc(NC(=O)C23CC4CC(CC(C4)C2)C3)c1` the entry was “inactive”.
As to `Cc1ccc(S(=O)(=O)N(CC(=O)O)Cc2ccccc2)cc1`, the Potency is inactive: > 76.9 µM.
With `CC(=O)OCc1cc2cc(C)ccc2[nH]c1=O` the figure was inactive: > 76.9 µM; with `O=C(c1ccncc1)N(Cc1ccco1)Cc1cc2ccccc2[nH]c1=O`, inactive: > 76.9 µM.
On to `COc1ccc(-n2cnc3c(cnn3CCC#N)c2=N)cc1`, for which the Potency was inactive: > 76.9 µM.
As for `COc1cc2c(cc1OC)C(C(=O)Nc1ccc3c(c1)OCCO3)C(c1cccnc1)N(C)C2=O` (stereo unspecified), the Potency is inactive: > 76.9 µM.
With `COc1ccc(Cn2c(=O)n(Cc3ccco3)c(=N)c3c4c(sc32)COC(C)(C)C4)cc1` the figure was inactive: > 76.9 µM; with `COC(=O)c1nc(N)sc1-c1ccccc1`, inactive: > 76.9 µM.
The value for `O=C(NCCSc1ccccc1)c1ccco1` was inactive: > 76.9 µM; that for `CCCCn1c(=O)c2ccccc2c2ccccc2c1=O` was inactive: > 76.9 µM.
For the compound `CCOc1cc(S(=O)(=O)n2c(C)nc3ccccc32)ccc1F`, the Potency is inactive: > 76.9 µM.
Turning to `Nc1nc2nc(SCC(=O)N3CCCc4ccccc43)[nH]c2c(=O)[nH]1`, the Potency is inactive: > 76.9 µM.
With `COC(=O)c1ccccc1NC(=O)CC#N` the figure was inactive: > 76.9 µM; with `CCC(=O)Nc1cc(Cl)ccc1N1CCN(C(=O)CC)CC1`, inactive: > 76.9 µM; with `CCOC(=O)Cn1nnnc1C(CC)N(Cc1cc2c(C)cc(C)cc2[nH]c1=O)C1CCCC1` (stereo unspecified), inactive: > 76.9 µM.
The value for `Cc1ccc2[nH]c(=O)c(COC(=O)c3ccccn3)cc2c1` was inactive: > 76.9 µM; that for `O=C(CSCc1cnn(-c2ccccc2)c1-n1cccc1)NCC1CCCO1` (stereo unspecified) was inactive: > 76.9 µM; that for `CC(OC(=O)c1ccncc1)C(=O)Nc1cccc(Cl)c1` (stereo unspecified) was inactive: > 76.9 µM.
With `CCOCCCNC(=O)C(c1ccc(C)cc1)N(Cc1ccc2c(c1)OCO2)C(=O)c1cnccn1` (stereo unspecified) the figure was inactive: > 76.9 µM; with `COc1ccccc1C(=O)N1CCN=C1SC`, inactive: > 76.9 µM.
Turning to `O=C(CNC(=O)c1ccccc1)NCCc1nc2ccccc2[nH]1`, the Potency was inactive: > 76.9 µM.
With `O=S(=O)(Cc1nc2ccccc2s1)c1ccccc1` the figure was inactive: > 76.9 µM; with `Cc1onc(-c2c(F)cccc2Cl)c1C(=O)Nc1ccc(S(=O)(=O)Nc2ncccn2)cc1`, inactive: > 76.9 µM; with `O=C(Cn1cnc2ccccc21)Nc1cc(C(F)(F)F)ccc1N1CCOCC1`, inactive: > 76.9 µM.
With `C(#Cc1ccccc1)CN1CCN(c2ccccn2)CC1`, the Potency is inactive: > 76.9 µM.
For the compound `CC(C(=O)NCC1(c2ccccc2)CCCC1)N1CCCC1` (stereo unspecified), the Potency was inactive: > 76.9 µM.
With `CCOC(=O)C1=C(C)Nc2nc(SCC(=O)OC)nn2C1c1cc(F)cc(F)c1` (stereo unspecified) the figure was inactive: > 76.9 µM; with `CN(CCc1ccccn1)S(=O)(=O)c1ccccc1F`, inactive: > 76.9 µM.
The value for `CCOC(=O)N1CCC(c2nc(C)sc2C(=O)O)CC1` was inactive: > 76.9 µM; that for `Cc1cc(=O)n2nc(N3CCCC3C(=O)NCc3ccccn3)sc2n1` (stereo unspecified) was inactive: > 76.9 µM.
As for `Cc1cnn(C(=S)NCc2ccc(Cl)cc2)c1`, the Potency was inactive: > 76.9 µM.
For `COc1ccc(-c2csc(NCc3ccco3)n2)cc1`, the Potency was inactive: > 76.9 µM.
For the compound `CCOC(=O)c1cn(CC)c2ccc(S(=O)(=O)N3CC(C)CC(C)C3)cc2c1=O` (stereo unspecified), the Potency is inactive: > 76.9 µM.
The value for `COCC(C)NC(=O)c1cc(-c2cccc(OC)c2)on1` (stereo unspecified) was inactive: > 76.9 µM; that for `CCOC(=O)Cn1nnnc1C(CC)N(Cc1cc2ccc(C)cc2[nH]c1=O)C1CCCC1` (stereo unspecified) was inactive: > 76.9 µM; that for `Cc1cc(Br)ccc1NC(=O)C1CCCO1` (stereo unspecified) was inactive: > 76.9 µM.
The value for `Cc1ccc2cccc(S(=O)(=O)n3nc(C)cc3C)c2n1` was inactive: > 76.9 µM; that for `COc1cc2c(cc1OC)-c1cc(NC3CCCC3)nc(=O)n1CC2` was inactive: > 76.9 µM.
On to `O=c1[nH]c(-c2cccs2)nc2ccccc12`, for which the Potency is inactive: > 76.9 µM.
With `O=C(c1nc2ccccc2s1)N1CCN(c2ccccn2)CC1` the figure was inactive: > 76.9 µM; with `Cc1nc2ccccc2c(=O)n1/N=C/c1c(O)ccc2oc3c(c12)CCCC3`, inactive: > 76.9 µM; with `COCCN1C(=O)C(=O)/C(=C(/O)c2ccc(OC(C)C)cc2)C1c1cccnc1` (stereo unspecified), inactive: > 76.9 µM.
The value for `O=c1c2c3nc4ccccc4nc3n(-c3ccc4c(c3)OCCO4)c2ncn1CC1CCCO1` (stereo unspecified) was inactive: > 76.9 µM.
With `CC(=O)NC(Cc1cc(C)ccc1C)C(=O)N1CCN(C(=O)Nc2ccc(C(C)=O)cc2)CC1` (stereo unspecified) the figure was inactive: > 76.9 µM; with `COc1cc2c(cc1NC(=O)c1cncc(Br)c1)oc1ccccc12`, inactive: > 76.9 µM.
Consider `Cc1ccc(CS(=O)(=O)CCC(=O)NCc2ccc3c(c2)OCO3)cc1`, for which the Potency was inactive: > 76.9 µM.
With `COc1cc2c(cc1NC(=O)Cn1cnc3c1c(=O)n(C)c(=O)n3C)oc1ccccc12` the figure was inactive: > 76.9 µM; with `COc1cc(OC)cc(C(=O)Nc2ccc3c(c2)COC3=O)c1`, inactive: > 76.9 µM.
The value for `CCCS(=O)(=O)N1CCC(C(=O)NCCCN2CCCC2=O)CC1` was inactive: > 76.9 µM; that for `CCc1ccccc1S(=O)(=O)Cc1ccc(C(=O)NCC2CCCO2)o1` (stereo unspecified) was inactive: > 76.9 µM.
The value for `CCOC(=O)c1ccc(N2C(=O)C3C(C2=O)C(C(=O)c2ccc(Cl)cc2)N2CCCC32)cc1` (stereo unspecified) was inactive: > 76.9 µM; that for `CSc1nnc2c3ccccc3n(Cc3ccccc3)c2n1` was inactive: > 76.9 µM; that for `CSc1ccccc1NC(=O)COc1ccc(S(=O)(=O)N2CCCC2)cc1` was inactive: > 76.9 µM.
`COc1ccc(CN(C(=O)c2oc3ccccc3c2C)C2CCS(=O)(=O)C2)cc1OC` (stereo unspecified): the Potency was inactive: > 76.9 µM.
`CSC1CCCCC1(O)CSc1nc2ccccc2o1` (stereo unspecified): the Potency was inactive: > 76.9 µM.
`Cc1noc(C)c1C(=O)N1CCN(CCc2ccccc2)CC1`: the Potency was inactive: > 76.9 µM.
Turning to `CCc1ccc(N/C(SC)=C(/C#N)C(N)=O)cc1`, the Potency is inactive: > 76.9 µM.
The value for `Cc1ccc2c(c1)N(CC(=O)N1CCCc3ccccc31)C(=O)C(C)O2` (stereo unspecified) was inactive: > 76.9 µM; that for `Cc1noc(C)c1COC(=O)c1ccc2c(c1)OCCO2` was inactive: > 76.9 µM; that for `CSc1c[n+]2c(n1C)CCC2` was inactive: > 76.9 µM.
For `O=C(CN1CCN(c2ccccn2)CC1)NCCc1ccccc1`, the Potency was inactive: > 76.9 µM.
The value for `Cc1ccc(C)c(Cn2c(=O)n(CCCC(=O)NCc3ccco3)c(=O)c3ccccc32)c1` was inactive: > 76.9 µM; that for `C=C(C)CN=c1scc(C)n1/N=C/c1ccco1` was inactive: > 76.9 µM.
With `CC(=O)c1cccc(NS(=O)(=O)c2c(C)noc2C)c1` the figure was inactive: > 76.9 µM; with `O=C(CSc1nc(-c2ccncc2)nn1CC(=O)N1CCCCC1)NC1CCCC1`, inactive: > 76.9 µM; with `Cc1cccc2cc(COC(=O)c3ccccn3)c(=O)[nH]c12`, inactive: > 76.9 µM.
On to `Cc1onc(-c2ccccc2)c1C(=O)Nc1ccc2c(C)cc(=O)oc2c1`, for which the Potency was inactive: > 76.9 µM.
The value for `COc1cc(OC)cc(-c2nnc(SCC(=O)N(Cc3ccccc3)C(C)(C)C)o2)c1` was inactive: > 76.9 µM; that for `CCn1nnnc1SCC(=O)N1c2ccccc2CCc2ccccc21` was inactive: > 76.9 µM.
With `CCc1ccc(S(=O)(=O)NCc2cn3ccsc3n2)s1` the figure was inactive: > 76.9 µM.
With `CCC1(CC)C(=O)N(C)C(=O)NC1=NCc1ccccc1` the figure was inactive: > 76.9 µM; with `Cc1cc(C)c2nc(N3CCC(C(=O)N4CCCC4)CC3)sc2c1`, inactive: > 76.9 µM.
Regarding `O=C(CN1CCN(c2nc(-c3ccc(F)cc3)cs2)CC1)Nc1ccc2c(c1)OCO2`, the Potency was inactive: > 76.9 µM.
`COCCn1c(SCC#N)nnc1-c1ccc2c(c1)OCO2`: the Potency is inactive: > 76.9 µM.

The values are drawn from PubChem BioAssay AID360 (National Center for Advancing Translational Sciences (NCATS), 2006).
